# Source: publication PMC3060121
# Results are given in words; binding and its absence hold for the method and conditions named. Some results given as binding are weak or reduced against the parent protein; the word gives no strength. For part of these data: Where a sequence is shown, tags or fusion partners need not be part of it.
# Columns and labels:
# Assay in all cases: two-hybrid; GAL4 based, S. cerevisiae PCY2; Gal4AD-Pex5p(C) with Gal4DB-SCP2 variants; β-galactosidase activity (A420 per mg protein per min), mean of three measurements
# [1] = molecular target: Gal4DB-mSCP2 (21-143), two-hybrid fusion (human) (UniProt P22307)
# [2] = molecular target: T1, Gal4DB-preSCP2ΔAKL (1-140), two-hybrid fusion (human) (UniProt P22307)
# T1 sequence: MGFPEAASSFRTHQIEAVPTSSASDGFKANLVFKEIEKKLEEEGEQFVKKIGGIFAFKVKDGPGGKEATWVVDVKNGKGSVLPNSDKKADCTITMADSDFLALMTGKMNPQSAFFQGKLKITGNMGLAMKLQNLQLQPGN
# [3] = molecular target: Gal4DB-preSCP2 (1-143), two-hybrid fusion (human) (UniProt P22307)
# [4] = molecular target: T2, Gal4DB-mSCP2ΔAKL (21-140), two-hybrid fusion (human) (UniProt P22307)
# T2 sequence: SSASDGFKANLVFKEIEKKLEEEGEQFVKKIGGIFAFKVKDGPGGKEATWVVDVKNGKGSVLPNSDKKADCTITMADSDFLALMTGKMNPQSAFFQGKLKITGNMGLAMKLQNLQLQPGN
Substance,binding [1],binding [2],binding [3],binding [4]
"Gal4AD-Pex5p(C) (residues 315-639), wild-type, two-hybrid fusion (from UniProt P50542 315-639) (domain or fragment)",binds,no binding,binds,no binding
"Gal4AD-Pex5p(C) (residues 315-639) D624W, two-hybrid fusion (from UniProt P50542 315-639) (domain or fragment)",binds,–,binds,–
